Test results as given in the BET-seq Pho4 binding data (Le et al. 2018).
This is one part of the list. The energies were worked out here from pooled read counts, against the library average; single values are noisy.

Target: T1, Pho4 (S. cerevisiae) (UniProt P07270)
T1 sequence: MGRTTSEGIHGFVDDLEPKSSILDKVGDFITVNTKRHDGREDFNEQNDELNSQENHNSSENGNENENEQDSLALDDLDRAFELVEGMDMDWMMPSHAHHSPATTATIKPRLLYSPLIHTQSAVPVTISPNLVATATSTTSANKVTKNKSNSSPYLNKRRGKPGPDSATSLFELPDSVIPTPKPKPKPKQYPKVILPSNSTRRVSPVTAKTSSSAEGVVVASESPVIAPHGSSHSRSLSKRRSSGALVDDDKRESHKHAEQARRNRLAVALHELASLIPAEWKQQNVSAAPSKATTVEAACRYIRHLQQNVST
Assay: relative binding free energy (BET-seq); higher = weaker binding
Details: reference: library average

Q: Which “relative binding free energy” value does the source give for CTTCGCACGTGGTAGT here?
A: -0.18 kcal/mol

Q: How did the “relative binding free energy” value turn out when CTGGGCACGTGTAGCT was run?
A: 0.04 kcal/mol

Q: With TATCGCACGTGTGTTA as the sequence, how does the “relative binding free energy” value read?
A: 0.11 kcal/mol

Q: How did the “relative binding free energy” value turn out when TTTTTCACGTGTTGTT was run?
A: 0.35 kcal/mol

Q: With TTTATCACGTGTAGGT as the sequence, how does the “relative binding free energy” value read?
A: 0.21 kcal/mol

Q: With TCATGCACGTGATTGT as the sequence, how does the “relative binding free energy” value read?
A: 0.13 kcal/mol

Q: With TGTTGCACGTGATTGA as the sequence, how does the “relative binding free energy” value read?
A: 0.1 kcal/mol

Q: Which “relative binding free energy” value does the source give for GCGTCCACGTGTGTGT here?
A: 0.19 kcal/mol

Q: How did the “relative binding free energy” value turn out when ATTTTCACGTGCGTGC was run?
A: 0.17 kcal/mol

Q: For CGTGCCACGTGTTGGT, which “relative binding free energy” value is on record?
A: -0.08 kcal/mol

Q: How did the “relative binding free energy” value turn out when AGGATCACGTGTTGAT was run?
A: 0.01 kcal/mol

Q: How did the “relative binding free energy” value turn out when AGGGTCACGTGAGGAT was run?
A: 0.21 kcal/mol

Q: TATTCCACGTGGTGAG was tested. Which “relative binding free energy” value did it give?
A: 0.03 kcal/mol

Q: With GAGGGCACGTGACGGG as the sequence, how does the “relative binding free energy” value read?
A: 0.18 kcal/mol

Q: With TTGATCACGTGCTTGT as the sequence, how does the “relative binding free energy” value read?
A: -0.01 kcal/mol

Q: GCTATCACGTGATTGG was tested. Which “relative binding free energy” value did it give?
A: 0.25 kcal/mol

Q: Which “relative binding free energy” value does the source give for AGAGTCACGTGAGTCG here?
A: 0.38 kcal/mol

Q: How did the “relative binding free energy” value turn out when TGATTCACGTGATTTC was run?
A: 0.38 kcal/mol

Q: GTTTACACGTGTATTC was tested. Which “relative binding free energy” value did it give?
A: 0.16 kcal/mol

Q: Which “relative binding free energy” value does the source give for AACTACACGTGTGTGG here?
A: 0.15 kcal/mol

Q: GTTGACACGTGCGGTA was tested. Which “relative binding free energy” value did it give?
A: 0.01 kcal/mol

Q: For TCATTCACGTGGTGTA, which “relative binding free energy” value is on record?
A: 0.01 kcal/mol

Q: How did the “relative binding free energy” value turn out when GTCGTCACGTGGGCTT was run?
A: -0.07 kcal/mol

Q: GAGTTCACGTGCTGGG was tested. Which “relative binding free energy” value did it give?
A: 0.23 kcal/mol

Q: For ATATACACGTGTTATG, which “relative binding free energy” value is on record?
A: -0.14 kcal/mol

Q: With TTACTCACGTGTGCTT as the sequence, how does the “relative binding free energy” value read?
A: 0.27 kcal/mol

Q: AGTGACACGTGAAAGT was tested. Which “relative binding free energy” value did it give?
A: 0.42 kcal/mol

Q: Which “relative binding free energy” value does the source give for TTGTTCACGTGAACGT here?
A: 0.34 kcal/mol

Q: ATCTTCACGTGGTGAG was tested. Which “relative binding free energy” value did it give?
A: 0.22 kcal/mol

Q: GGAGGCACGTGGAGCT was tested. Which “relative binding free energy” value did it give?
A: -0.23 kcal/mol

Q: TTTGCCACGTGGGTTT was tested. Which “relative binding free energy” value did it give?
A: -0.08 kcal/mol

Q: With TAAATCACGTGGAAGT as the sequence, how does the “relative binding free energy” value read?
A: 0.31 kcal/mol

Q: For CAGGTCACGTGGGTTA, which “relative binding free energy” value is on record?
A: 0 kcal/mol

Q: GGTCTCACGTGAGTTG was tested. Which “relative binding free energy” value did it give?
A: 0.46 kcal/mol

Q: Which “relative binding free energy” value does the source give for CGAGACACGTGGGGGA here?
A: -0.1 kcal/mol

Q: For TTCCGCACGTGGGGTA, which “relative binding free energy” value is on record?
A: -0.14 kcal/mol

Q: AGTTTCACGTGGTGTT was tested. Which “relative binding free energy” value did it give?
A: 0.27 kcal/mol

Q: TGGAGCACGTGTAGCT was tested. Which “relative binding free energy” value did it give?
A: -0.14 kcal/mol

Q: How did the “relative binding free energy” value turn out when GTATTCACGTGTTGCG was run?
A: 0.25 kcal/mol

Q: How did the “relative binding free energy” value turn out when TTTTACACGTGTGCTT was run?
A: 0.13 kcal/mol

Q: Which “relative binding free energy” value does the source give for AGAGACACGTGGTGAT here?
A: -0.09 kcal/mol

Q: TAGTTCACGTGGAAAA was tested. Which “relative binding free energy” value did it give?
A: 0.34 kcal/mol

Q: For TGCGTCACGTGGTGTC, which “relative binding free energy” value is on record?
A: 0.1 kcal/mol

Q: For TAAGGCACGTGATTTT, which “relative binding free energy” value is on record?
A: 0.06 kcal/mol

Q: With ATGGCCACGTGTGTTT as the sequence, how does the “relative binding free energy” value read?
A: 0.09 kcal/mol

Q: For ATGCGCACGTGGCGGG, which “relative binding free energy” value is on record?
A: -0.33 kcal/mol

Q: For AGTCACACGTGTGGGT, which “relative binding free energy” value is on record?
A: 0.19 kcal/mol

Q: Which “relative binding free energy” value does the source give for TCTGTCACGTGTTTAA here?
A: -0.04 kcal/mol

Q: AGATGCACGTGTGAGT was tested. Which “relative binding free energy” value did it give?
A: 0 kcal/mol

Q: For CGTATCACGTGTGGAT, which “relative binding free energy” value is on record?
A: 0.13 kcal/mol

Q: Which “relative binding free energy” value does the source give for TTTACCACGTGAGGTG here?
A: 0.26 kcal/mol

Q: For TTGTTCACGTGATGGG, which “relative binding free energy” value is on record?
A: 0.37 kcal/mol

Q: For TAGAGCACGTGAGTTG, which “relative binding free energy” value is on record?
A: 0.08 kcal/mol

Q: Which “relative binding free energy” value does the source give for GCGGGCACGTGAGGTA here?
A: 0.24 kcal/mol

Q: How did the “relative binding free energy” value turn out when AAAGCCACGTGGGGGG was run?
A: -0.29 kcal/mol

Q: GTATGCACGTGGATTA was tested. Which “relative binding free energy” value did it give?
A: 0.02 kcal/mol

Q: With CATGTCACGTGATAGG as the sequence, how does the “relative binding free energy” value read?
A: 0.2 kcal/mol

Q: CAGAGCACGTGGGTGG was tested. Which “relative binding free energy” value did it give?
A: -0.26 kcal/mol

Q: For CAGTTCACGTGTTTTT, which “relative binding free energy” value is on record?
A: 0.22 kcal/mol

Q: AACTGCACGTGGTAAG was tested. Which “relative binding free energy” value did it give?
A: 0.05 kcal/mol

Q: How did the “relative binding free energy” value turn out when TCGTACACGTGAAGGT was run?
A: 0.15 kcal/mol

Q: GGCTGCACGTGAGCGG was tested. Which “relative binding free energy” value did it give?
A: 0.16 kcal/mol

Q: With TCAGGCACGTGAAGTT as the sequence, how does the “relative binding free energy” value read?
A: 0.15 kcal/mol
